Data: the supplement of paper PMC4996465

Experiments:
Nalm-6 [1] = experiment: log AC50 of viability decrease (48 h) (log10 M); higher = less potent
Experimental: (§1)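 Eleven-dose screen of the NCATS MIPE 3 library on cells without co-treatment; CellTiter-Glo after 48 h. AC50 from the curve fit; only inhibitory curves of the better fit classes are listed.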

KB3-1 [2] = experiment: as above
Experimental: as §1

Nalm-6 [3] = experiment: viability (% of DMSO control); higher = more viable cells
Experimental: (§2)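 Eleven-dose screen of the NCATS MIPE 3 library on cells without co-treatment; CellTiter-Glo after 48 h, as % of DMSO wells.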

KB3-1 [4] = experiment: as above
Experimental: as §2

CN(C)C/C=C/C(=O)Nc1cc2c(Nc3ccc(F)c(Cl)c3)ncnc2cc1O[C@H]1CCOC1 [Afatinib]
log AC50 of viability decrease (Nalm-6 [1]; run: 1): -5.93 | log AC50 of viability decrease (Nalm-6 [1]; run: 2): -5.83 | log AC50 of viability decrease (KB3-1 [2]): -5.18 | viability (Nalm-6 [3]; run: 1, 0.00078 µM): 92.4% | viability (Nalm-6 [3]; run: 1, 0.00234 µM): 96.6% | viability (Nalm-6 [3]; run: 1, 0.00702 µM): 94.6% | viability (Nalm-6 [3]; run: 1, 0.0211 µM): 98.9% | viability (Nalm-6 [3]; run: 1, 0.0632 µM): 82.9% | viability (Nalm-6 [3]; run: 1, 0.19 µM): 73.2% | viability (Nalm-6 [3]; run: 1, 0.569 µM): 57.2% | viability (Nalm-6 [3]; run: 1, 1.71 µM): 34.7% | viability (Nalm-6 [3]; run: 1, 5.12 µM): 22.3% | viability (Nalm-6 [3]; run: 1, 15.4 µM): 2.36% | viability (Nalm-6 [3]; run: 1, 46.1 µM): -1.04% | viability (Nalm-6 [3]; run: 2, 0.00078 µM): 104% | viability (Nalm-6 [3]; run: 2, 0.00234 µM): 97.3% | viability (Nalm-6 [3]; run: 2, 0.00702 µM): 94.3% | viability (Nalm-6 [3]; run: 2, 0.0211 µM): 97.3% | viability (Nalm-6 [3]; run: 2, 0.0632 µM): 93.3% | viability (Nalm-6 [3]; run: 2, 0.19 µM): 83.8% | viability (Nalm-6 [3]; run: 2, 0.569 µM): 69% | viability (Nalm-6 [3]; run: 2, 1.71 µM): 52.9% | viability (Nalm-6 [3]; run: 2, 5.12 µM): 3.54% | viability (Nalm-6 [3]; run: 2, 15.4 µM): 2.27% | viability (Nalm-6 [3]; run: 2, 46.1 µM): -0.498% | viability (KB3-1 [4]; 0.00078 µM): 94.8% | viability (KB3-1 [4]; 0.00234 µM): 91% | viability (KB3-1 [4]; 0.00702 µM): 92.3% | viability (KB3-1 [4]; 0.0211 µM): 91.4% | viability (KB3-1 [4]; 0.0632 µM): 92.1% | viability (KB3-1 [4]; 0.19 µM): 85.4% | viability (KB3-1 [4]; 0.569 µM): 86.1% | viability (KB3-1 [4]; 1.71 µM): 61.4% | viability (KB3-1 [4]; 5.12 µM): 45.8% | viability (KB3-1 [4]; 15.4 µM): 28.2% | viability (KB3-1 [4]; 46.1 µM): -0.992%

Cc1ccc(Nc2nccc(N(C)c3ccc4c(C)n(C)nc4c3)n2)cc1S(N)(=O)=O [Pazopanib]
log AC50 of viability decrease (Nalm-6 [1]; run: 1): -4.68 | log AC50 of viability decrease (KB3-1 [2]): -4.68 | viability (Nalm-6 [3]; run: 1, 0.00078 µM): 104% | viability (Nalm-6 [3]; run: 1, 0.00234 µM): 105% | viability (Nalm-6 [3]; run: 1, 0.00702 µM): 107% | viability (Nalm-6 [3]; run: 1, 0.0211 µM): 112% | viability (Nalm-6 [3]; run: 1, 0.0632 µM): 108% | viability (Nalm-6 [3]; run: 1, 0.19 µM): 108% | viability (Nalm-6 [3]; run: 1, 0.569 µM): 93.6% | viability (Nalm-6 [3]; run: 1, 1.71 µM): 95.6% | viability (Nalm-6 [3]; run: 1, 5.12 µM): 83.9% | viability (Nalm-6 [3]; run: 1, 15.4 µM): 79.6% | viability (Nalm-6 [3]; run: 1, 46.1 µM): 14.7% | viability (Nalm-6 [3]; run: 2, 0.00078 µM): 101% | viability (Nalm-6 [3]; run: 2, 0.00234 µM): 99.2% | viability (Nalm-6 [3]; run: 2, 0.00702 µM): 101% | viability (Nalm-6 [3]; run: 2, 0.0211 µM): 108% | viability (Nalm-6 [3]; run: 2, 0.0632 µM): 109% | viability (Nalm-6 [3]; run: 2, 0.19 µM): 99.8% | viability (Nalm-6 [3]; run: 2, 0.569 µM): 93.1% | viability (Nalm-6 [3]; run: 2, 1.71 µM): 90.5% | viability (Nalm-6 [3]; run: 2, 5.12 µM): 87.8% | viability (Nalm-6 [3]; run: 2, 15.4 µM): 93.8% | viability (Nalm-6 [3]; run: 2, 46.1 µM): 11% | viability (KB3-1 [4]; 0.00078 µM): 101% | viability (KB3-1 [4]; 0.00234 µM): 102% | viability (KB3-1 [4]; 0.00702 µM): 105% | viability (KB3-1 [4]; 0.0211 µM): 105% | viability (KB3-1 [4]; 0.0632 µM): 100% | viability (KB3-1 [4]; 0.19 µM): 104% | viability (KB3-1 [4]; 0.569 µM): 99.9% | viability (KB3-1 [4]; 1.71 µM): 95.7% | viability (KB3-1 [4]; 5.12 µM): 88.8% | viability (KB3-1 [4]; 15.4 µM): 89% | viability (KB3-1 [4]; 46.1 µM): 57%

N#CCNC(=O)c1ccc(-c2ccnc(Nc3ccc(N4CCOCC4)cc3)n2)cc1 [CYT387]
log AC50 of viability decrease (Nalm-6 [1]; run: 1): -5.28 | log AC50 of viability decrease (Nalm-6 [1]; run: 2): -5.28 | log AC50 of viability decrease (KB3-1 [2]): -4.78 | viability (Nalm-6 [3]; run: 1, 0.00078 µM): 111% | viability (Nalm-6 [3]; run: 1, 0.00234 µM): 110% | viability (Nalm-6 [3]; run: 1, 0.00702 µM): 112% | viability (Nalm-6 [3]; run: 1, 0.0211 µM): 115% | viability (Nalm-6 [3]; run: 1, 0.0632 µM): 108% | viability (Nalm-6 [3]; run: 1, 0.19 µM): 107% | viability (Nalm-6 [3]; run: 1, 0.569 µM): 84.5% | viability (Nalm-6 [3]; run: 1, 1.71 µM): 72.6% | viability (Nalm-6 [3]; run: 1, 5.12 µM): 51.4% | viability (Nalm-6 [3]; run: 1, 15.4 µM): 36.4% | viability (Nalm-6 [3]; run: 1, 46.1 µM): 4.87% | viability (Nalm-6 [3]; run: 2, 0.00078 µM): 102% | viability (Nalm-6 [3]; run: 2, 0.00234 µM): 100% | viability (Nalm-6 [3]; run: 2, 0.00702 µM): 110% | viability (Nalm-6 [3]; run: 2, 0.0211 µM): 104% | viability (Nalm-6 [3]; run: 2, 0.0632 µM): 101% | viability (Nalm-6 [3]; run: 2, 0.19 µM): 101% | viability (Nalm-6 [3]; run: 2, 0.569 µM): 87.1% | viability (Nalm-6 [3]; run: 2, 1.71 µM): 79% | viability (Nalm-6 [3]; run: 2, 5.12 µM): 46.8% | viability (Nalm-6 [3]; run: 2, 15.4 µM): 24.3% | viability (Nalm-6 [3]; run: 2, 46.1 µM): 4% | viability (KB3-1 [4]; 0.00078 µM): 103% | viability (KB3-1 [4]; 0.00234 µM): 95.3% | viability (KB3-1 [4]; 0.00702 µM): 97.9% | viability (KB3-1 [4]; 0.0211 µM): 103% | viability (KB3-1 [4]; 0.0632 µM): 101% | viability (KB3-1 [4]; 0.19 µM): 96.6% | viability (KB3-1 [4]; 0.569 µM): 100% | viability (KB3-1 [4]; 1.71 µM): 89.6% | viability (KB3-1 [4]; 5.12 µM): 70.3% | viability (KB3-1 [4]; 15.4 µM): 62.7% | viability (KB3-1 [4]; 46.1 µM): 31%

Viability of KB3-1 and Nalm-6 cells after 48 h of drug alone (CellTiter-Glo), 11 doses over about 4.5 log units. % of DMSO wells, lower = more cell loss; AC50 from the fitted curve, lower = more potent. No active / inactive call. Nalm-6 was screened in two runs. AC50 is listed only for well-fitted inhibitory curves. KB3-1 is a HeLa-derived carcinoma line, Nalm-6 a B-cell precursor leukaemia line.
